Source: ChEMBL document CHEMBL4888484, “Replenishing the malaria drug discovery pipeline: Screening and hit evaluation of the MMV Hit Generation Library 1 (HGL1) against asexual blood stage Plasmodium falciparum ,using a nano luciferase reporter read-out” (2022)
About 410 (8.5%) of roughly 4,800 compounds showed an effect of 50% or more. Some of the results follow.

test system: Plasmodium falciparum; test: Confirmatory screen in NF54 pLDH assay, in single point, at 2uM, 72h; type: functional, Erythrocyte; settings: timepoint 72 hour

Compound	% Inhibition [%]
O=C(CCn1nc2ccccn2c1=O)N1CC(CC(F)F)C1	6
Cc1nc2cccnc2n1-c1cc(C(=O)NCCc2ccccc2)ccc1Cl	6
COc1ccc(N2CCN(C(=O)CN3C(=O)COc4cc(C)ccc43)CC2)cc1	2
O=c1cc(-c2ccccc2F)[nH]c2cc3c(cc12)OCO3	9
Cc1cc2c(cc1C)[C@H](C(=O)Nc1cc(C(N)=O)ccc1Cl)CO2	3
Nc1nc(-c2ccc(Br)cc2)nc(-c2ccc(Br)cc2)n1	2
Cc1cc(-c2csc(CN3C(=O)CNC3=O)n2)cc(C)c1F	-24
C[C@@H](CCc1ccccc1)NC(=O)c1cnn2c3c(cnc12)CCCC3	-5
C#C[C@H](C)N(C)Cc1c[nH]c(C(=O)OC)c1	-7
CC(C)NC(=O)N(CC(=O)N1CCn2cccc2[C@H]1c1cccc(F)c1)C1CC1	12
Cc1nn(C)c(Cl)c1NC(=O)OCc1ccc(F)cc1	13
O=C(NCc1ccncc1)c1cc(C(=O)C2CCCCC2)c[nH]1	-10
CC(=O)N(Cc1ccccc1OCc1c(Cl)cccc1Cl)c1ccc2oc(-c3ccccc3)nc2c1	-6
COC(=O)c1[nH]c(C)cc1NC(=O)C1=CCCCCC1	9
COc1ccc(CC2C(O)C(Cc3ccc(OC)cc3)C3CCC2N3C)cc1 (configuration not stated)	6
Oc1cccc(CN2CCC3(CC2)C[C@H](c2ccccc2)CN(C2CC2)C3)c1	29
CC(=O)NCC(=O)N1CCC(OC(C)(C)C)CC1	11
O=C(c1cnc2ccccc2n1)N1CCCC1	-1
Cc1cc(F)ccc1N1CCC[C@H](NC(=O)c2csnc2C)C1=O	5
O=C(O)C1c2ccccc2C(=O)N(C2CCCCC2)C1c1ccc(Cl)cc1 (configuration not stated)	-3
O=C(Nc1nc2cccc(Cl)c2o1)c1cccc(F)c1	92
COC(=O)C1(CNC(=O)C2CCC2)CCCCC1	10
CCN1CCN(c2nc3ncn(CC(=O)NC(C)C)c(=O)c3s2)CC1	-10

Compound	% Inhibition [%]
Cc1noc(Cn2c(=O)c3ccccc3n(CC(=O)Nc3cccc(Cl)c3C)c2=O)n1	2
COc1ccc(CCNC(=O)Cn2c(=O)ncc3cc(S(=O)(=O)N4CCCC[C@@H]4C)ccc32)cc1OC	9
Cc1nc2ccccc2n1CC1CCCN1C(=O)C1CCc2cccnc21 (configuration not stated)	4
COc1ccc(-c2nc(N)s[n+]2-c2ccccc2)cc1	9
COc1ccnc(N2CCc3nn(C(C)C)c(=O)cc3C2)n1	3
CC1(C)CCc2nnc(COc3ccc(C#N)cc3)n2C1	8
Cn1cc(C(=O)NCCOc2ccc3ccccc3n2)cn1	-10
O=C(Cn1c(=O)n(Cc2ccco2)c(=O)c2ccccc21)NC1CCCCC1	10
COc1ccc(-c2c(C(F)(F)F)n[nH]c2-c2ccc(OCc3ccccc3F)cc2O)cc1	91
O=C1C[C@H](c2nc3cc(Cl)ccc3o2)CN1c1ccc(F)cc1	-13
O=C(CNC(=O)c1ccc(Cl)cc1)Nc1ccc2[nH]c(=O)[nH]c2c1	2
O=C(N[C@H]1C[C@@H]2C[C@H]1CN2C(=O)c1ccc(C(F)(F)F)s1)c1cccnc1	14
O=C(c1ccc(COc2ccc3ccccc3c2)o1)N1CCN(c2ccccn2)CC1	9
COc1cccc(-c2cc3c(N4CCN(c5ccccn5)CC4)nccn3n2)c1	4
CCC(=O)Nc1cc(Br)c(N)c(Br)c1	-22
O=C(NC1CCCC1)N1CCC2(CC1)C[C@@H](OCc1ccccc1)CCO2	10
Cc1cccc(C)c1NC(=O)C1CCN(S(=O)(=O)c2c(C)nn(-c3ccccc3)c2C)CC1	-3
CC1OC2(OC1C)C(=O)N(C1CCOC1=O)c1ccccc12 (configuration not stated)	-15
COc1ccccc1[C@H]1CC(O)=Nc2c1ncn2-c1cc(F)cc(F)c1	-10
CCS(=O)(=O)CCNC(=O)c1cccc(F)c1F	3
Cc1ccc2sc(C(=O)N3CC(OCC(=O)N(C)C)C3)cc2c1	3
Cn1c(-c2ccccc2)c[n+](CC(=O)c2ccc3c(c2)OCO3)c1N	12
CC1C=CC2C(=O)N(CC(F)(F)F)C(=O)C2C1C(=O)N1CCC(Cc2ccccc2)CC1 (configuration not stated)	0

Compound	% Inhibition [%]
C[C@H](C#N)CN(C)c1nc(C2CC2)nc2scc(-c3ccccc3)c12	-3
CC(C)NC(=O)C(=O)Nc1nccs1	-19
CC(=O)Nc1cc(NC(=O)c2cccc[n+]2[O-])c(F)cc1F	-20
COCCCNC(=O)c1cncc(Br)c1	-2
Cn1ccc(NC(=O)C(=O)N2CC[C@H](c3ccco3)C2)n1	5
Cc1cccc(CN(Cc2cccc(C)n2)C[C@H]2CCCCO2)n1	90
CCc1nc(NS(=O)(=O)c2cc(Cl)sc2Cl)no1	5
Cc1ccc(C2=C[C@@H](c3ccc(Cl)cc3)n3nc(NC(=O)c4ccccc4)nc3N2)cc1	90
Cc1cc(S(=O)(=O)NC(=O)CCC(C)C)c(C)o1	-22
CCc1n[nH]c(C(=O)N2CC3CCCN3CC2CC)c1Br (configuration not stated)	11
COc1ccc(F)cc1S(=O)(=O)N1CCc2noc(N)c2C1	63
CCN(CCNC(=O)C1CC1c1cccc(Cl)c1Cl)CC(F)F (configuration not stated)	7
CCCCNC(=O)Nc1cccc(C#CCN)n1	3
CCC1=Nc2ccccc2N=C(NC(=O)C(C)C)[C@H]1c1ccc(F)cc1	42
Cn1ccc(CNC(=O)c2c(Br)cnn2C)n1	-10
COC[C@H](NCCc1cc(F)cc2c1OCOC2)C1CC1	82
Cc1cc(C)cc(-n2c(=O)c3sccc3n(CC(=O)NCc3ccccc3Cl)c2=O)c1	-17
CS(=O)(=O)N1CCC(C(=O)Nc2cnn(Cc3c(F)cc(F)c(F)c3F)c2)CC1	7
CCc1ccc(-n2c(=O)[nH]c3nc(N4CCN(c5ccccc5F)CC4)ncc3c2=O)cc1	-25
CC1(C)CN(C(=O)c2c[nH]c3ccccc23)CC[S@@+]1[O-]	-12
Cc1cccc(N2CCN(CCCNC(=O)CCn3c(=O)c(C)nc4cc(C)c(C)cc43)C[C@@H]2C)c1	12
